Assay results from PubChem BioAssay AID1508642 (National Center for Advancing Translational Sciences (NCATS), 2021).
About 200 (0.47%) of roughly 43,000 compounds were called active. The shares of active, inactive and inconclusive entries below differ from those in the screen. Calls follow the shape of the dose curve; as a rule, active = well fitted cell-killing curve with a large enough effect; inconclusive = small, poorly fitted or top-dose-only effect, or effect the other way; inactive = flat fitted curve, though single readings scatter. Potencies of inconclusive entries are doubtful fits and often do not repeat.

Test: Cell viability qHTS assay in S16 Pmp22-F2sN cells; also: nearly all actives have a fitted effect of over 65% in size
Conditions: S16 Pmp22-F2sN Schwann cells (luciferase reporters placed in the Pmp22 gene) viability, CellTiter-Glo, 24 h; activity change, negative = cytotoxicity: at 57.5 µM (top of the series)
How it was run: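 Seed 500-1,000 S16 Pmp22-F2sN cells per well in phenol-red-free DMEM with 10% heat-inactivated FBS; pin-add 23 nL compound; incubate 24 h at 37C; add CellTiter-Glo, wait 15 min protected from light; read luminescence.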
% is scaled to controls: 0 for no effect and ±100 for the full control effect; potency is read from the fitted curve at half-maximal effect; tags tell the direction and shape of the fitted curve.

SMILES	Potency	activity change, negative = cytotoxicity
CCOc1ccc(-n2c(SCC(N)=O)nc3c(oc4ccccc43)c2=O)cc1	inconclusive: 39.8 µM [cytotoxic, single point]	
CC(=O)c1cccc(NS(=O)(=O)c2cc3c(cc2C)N(C(C)=O)CCO3)c1	inconclusive: 0.447 µM [cytotoxic, full curve, poor fit]	
Cc1ccc2nc(-c3cc(NC(=O)COc4ccc(C)c(C)c4)ccc3Cl)oc2c1		inactive: 0.487%
COc1ccccc1C(=O)Nc1c(C(=O)Nc2ccccc2F)oc2ccccc12		inactive: 4.17%
Cc1ccn2c(Nc3ccc(C(C)C)cc3)c(-c3cccnc3)nc2c1	inconclusive: 39.8 µM [cytotoxic, single point]	
O=C(Nc1cccc(-c2nc3ccccc3o2)c1)C(F)(F)F	inconclusive: 39.8 µM [cytotoxic, single point]	
CCCCC(=O)N1CCc2cc(OC)c(OC)cc2C1COc1ccc(OC)cc1 (stereo not drawn)		inactive: -13.8%
Cc1cc(=O)n(Cc2ccccc2)c2c1c(C)nn2C	inconclusive: 10 µM [cytotoxic, partial curve, poor fit]	
CCN1CCOC(=O)C1CC(=O)Nc1ccc(Br)cc1 (stereo not drawn)	inconclusive: 39.8 µM [cytotoxic, single point]	
O=C(Cn1c(=O)n(Cc2ccccc2)c(=O)c2sc3ccccc3c21)Nc1ccccc1		inactive: -13.4%
N#Cc1nc(-c2ccc(COc3ccc(Cl)cc3)o2)oc1N1CCC(C(N)=O)CC1	inconclusive: 28.2 µM [cytotoxic, single point]	
Cc1cc(C)n(-c2nc(C)c(C)c(=O)n2CC(=O)Nc2ccc([N+](=O)[O-])cc2)n1		inactive: -0.0596%
Cc1ccc(-n2ncc3c(NCCCN4CCOCC4)ncnc32)cc1C	inconclusive: 39.8 µM [cytotoxic, single point]	
CCC(C(=O)Nc1cc(C)ccc1C)n1c(=O)c(C(F)(F)F)nc2ccccc21 (stereo not drawn)	inconclusive: 22.4 µM [cytotoxic, single point]	
COc1ccc(OC)c(/C=C/c2nc3ccccc3c(=O)n2-c2ccc(F)c(Cl)c2)c1	inconclusive: 39.8 µM [cytotoxic, single point]	
O=C(COc1ccccc1Cl)Nc1ccc(-c2nc3ccccc3s2)cc1	inconclusive: 39.8 µM [cytotoxic, single point]	
COc1ccc(C2=CC(c3cc(Br)ccc3F)n3c(nc4ccccc43)N2)cc1 (stereo not drawn)		inactive: -1.94%
Cc1oc(-c2ccc(C(=O)Nc3ccc(F)cc3)cc2)nc1COc1ccccc1		inactive: 3.54%
Cc1cccc(CS(=O)(=O)c2ncc(Cl)c(C(=O)Nc3nnc(C(C)C)s3)n2)c1	inconclusive: 39.8 µM [cytotoxic, single point]	
COc1ccccc1C(=O)Nc1ccc2nc(SCCOc3ccccc3C)sc2c1	inconclusive: 0.0316 µM [cytotoxic, full curve, poor fit]	
COc1ccc(OC)c(C(=O)CC2(O)C(=O)N(Cc3ccccc3C)c3ccccc32)c1 (stereo not drawn)	inconclusive: 39.8 µM [cytotoxic, single point]	
Cc1ccc(/C=C(\C#N)c2nc(-c3ccc(-c4ccccc4)cc3)cs2)cc1	inconclusive: 2 µM [rising, full curve, poor fit]	

SMILES	Potency	activity change, negative = cytotoxicity
CCOC(=O)c1c(C)[nH]c(C)c1S(=O)(=O)N1CCC(C(=O)Nc2cc(C)ccn2)CC1		inactive: 12.8%
CC(C)(C)C1CCc2c(sc(NC(=O)Cn3nnc(-c4ccccc4Cl)n3)c2C#N)C1 (stereo not drawn)		inactive: 4.48%
CC(=O)C1=C(c2ccccc2)N(C(C)=O)n2c(nnc2C2CCCCC2)S1	inconclusive: 39.8 µM [cytotoxic, partial curve, poor fit]	
CCCCN(C)CCCNC(=O)C1CCN(S(=O)(=O)CC)CC1		inactive: 5.71%
Cc1cc(C)cc(-n2cnc3cc(C(=O)NC4CCCCCC4)ccc32)c1	inconclusive: 39.8 µM [cytotoxic, partial curve, poor fit]	
Cc1ccccc1Nc1nn2c(=O)c3ccc(C(=O)NCc4ccccc4)cc3nc2s1		inactive: -6.83%
CCOc1ccc(NC(=O)CN2CCN(S(=O)(=O)c3ccc(OC)cc3)CC2)cc1		inactive: -0.79%
O=C(NCc1ccccc1)C(=O)NCC(c1ccco1)S(=O)(=O)c1ccc(Cl)cc1 (stereo not drawn)	inconclusive: 28.2 µM [cytotoxic, single point]	
CCOc1ccc(CNC(=O)C2CCN(c3nnc(-n4c(C)ccc4C)s3)CC2)cc1		inactive: -11.3%
CCN(CC)S(=O)(=O)c1ccc(C(=O)NCCSc2c(-c3ccc(F)cc3)[nH]c3ccccc23)cc1	inconclusive: 25.1 µM [cytotoxic, single point]	
Cc1nnc(SCc2cc(=O)c3cc(F)ccc3[nH]2)n1C		inactive: 12.3%
Cc1cccc(N2CCN(C(=O)Cn3c(C)c4cnn(-c5ccccc5)c(=O)c4c3C)CC2)c1C	inconclusive: 14.1 µM [cytotoxic, partial curve, poor fit]	
CCOC(=O)c1ccc(Nc2c(-c3ccc(OC)cc3)nc3nc[nH]n23)cc1	inconclusive: 28.2 µM [cytotoxic, single point]	
CCCn1ccc2c(OCC(=O)Nc3ccccc3C(=O)OCC)cccc2c1=O		inactive: -0.544%
CCOc1ccc(C(=O)N2CCc3cc(OC)c(OC)cc3C2COc2ccc3c(C)cc(=O)oc3c2)cc1OCC (stereo not drawn)		inactive: -2.49%
CCOC(=O)c1[nH]c(C)c(CCC(=O)N2CCN(c3cc(C)ccc3C)CC2)c1C	inconclusive: 28.2 µM [cytotoxic, partial curve, poor fit]	
Cc1ccc(NC(=O)c2nc(S(=O)(=O)Cc3ccc(F)cc3)ncc2Cl)cc1C	active: 10 µM	
O=C(CSc1nc(=O)[nH]c2c1CCC2)Nc1cc(C(F)(F)F)ccc1Cl	inconclusive: 39.8 µM [cytotoxic, single point]	
Cc1cccc(C(=O)Nc2ccc3nc(SCC(=O)N4CCCC4)sc3c2)c1	inconclusive: 39.8 µM [cytotoxic, single point]	
O=C(c1cccs1)N1CCCc2cc(NS(=O)(=O)c3cc(F)ccc3F)ccc21	inconclusive: 31.6 µM [cytotoxic, single point]	
Cc1ccc(NC(=O)Cn2nc(C)c3nn(-c4ccc(Cl)cc4)c(C)c3c2=O)cc1F	inconclusive: 39.8 µM [cytotoxic, single point]	
